# Publication PMC12820563
# The list shows a part of the results. The list includes weakly bound sequences.
# Target: T1, MBP-FoxP3dN (UniProt Q99JB6)
# T1 sequence: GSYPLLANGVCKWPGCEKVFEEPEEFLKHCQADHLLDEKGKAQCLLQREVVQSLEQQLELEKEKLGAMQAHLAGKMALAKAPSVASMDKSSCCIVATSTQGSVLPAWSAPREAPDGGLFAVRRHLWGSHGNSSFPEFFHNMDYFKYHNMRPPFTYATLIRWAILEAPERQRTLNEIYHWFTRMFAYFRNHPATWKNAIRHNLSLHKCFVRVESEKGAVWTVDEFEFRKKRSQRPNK
# Assay: PD-seq (MBP pull-down with sequencing)
# Conditions: 20 mM Tris-HCl pH 7.5, 100 mM NaCl, 1.5 mM MgCl2, 0.4 uM protein, 0.1 uM dsDNA library, 30 min, room temperature, amylose pull-down; high values mean tight binding; double strand, one strand shown
row,Sequence,binding signal (RPM ratio (pull-down/input))
1,GATGATTGTTCTCCCAGCTGATGAATTCCTGTTCTCGAGTAAACAAATTTTCCTAATCTTTCTGTTCAAGCGCCATCTAC,0.461
2,GATGATTGTTCTCCCAGCTGATGAATTAGGTCATTCGAGTAAACAAATTTTCCTAATCTTTCTGTTCAAGCGCCATCTAC,0.683
3,GATGATTGTTCTCCCAGCTGATGAATTATTGTAATCGAGTAAACAAATTTTCCTAATCTTTCTGTTCAAGCGCCATCTAC,1.63
4,GATGATTGTTCTCCCAGCTGATGAATTTCATGGATCGAGTAAACAAATTTTCCTAATCTTTCTGTTCAAGCGCCATCTAC,0.283
5,GATGATTGTTCTCCCAGCTGATGAATTTATCTACTCGAGTAAACAAATTTTCCTAATCTTTCTGTTCAAGCGCCATCTAC,1.38
6,GATGATTGTTCTCCCAGCTGATGAATTCCGAAGTTCGAGTAAACAAATTTTCCTAATCTTTCTGTTCAAGCGCCATCTAC,0.278
7,GATGATTGTTCTCCCAGCTGATGAATTTTTCGGGTCGAGTAAACAAATTTTCCTAATCTTTCTGTTCAAGCGCCATCTAC,0.184
8,GATGATTGTTCTCCCAGCTGATGAATTGGGAATCTCGAGTAAACAAATTTTCCTAATCTTTCTGTTCAAGCGCCATCTAC,1.41
9,GATGATTGTTCTCCCAGCTGATGAATTTTGCCTGTCGAGTAAACAAATTTTCCTAATCTTTCTGTTCAAGCGCCATCTAC,5.62
10,GATGATTGTTCTCCCAGCTGATGAATTACAAGGTTCGAGTAAACAAATTTTCCTAATCTTTCTGTTCAAGCGCCATCTAC,0.394
11,GATGATTGTTCTCCCAGCTGATGAATTTTCGCTTTCGAGTAAACAAATTTTCCTAATCTTTCTGTTCAAGCGCCATCTAC,0.813
12,GATGATTGTTCTCCCAGCTGATGAATTTTAATGCTCGAGTAAACAAATTTTCCTAATCTTTCTGTTCAAGCGCCATCTAC,0.682
13,GATGATTGTTCTCCCAGCTGATGAATTATTGGTCTCGAGTAAACAAATTTTCCTAATCTTTCTGTTCAAGCGCCATCTAC,1.2
14,GATGATTGTTCTCCCAGCTGATGAATTTAGTTGCTCGAGTAAACAAATTTTCCTAATCTTTCTGTTCAAGCGCCATCTAC,2.92
15,GATGATTGTTCTCCCAGCTGATGAATTTCTGGCTTCGAGTAAACAAATTTTCCTAATCTTTCTGTTCAAGCGCCATCTAC,0.283
16,GATGATTGTTCTCCCAGCTGATGAATTCTTTTGGTCGAGTAAACAAATTTTCCTAATCTTTCTGTTCAAGCGCCATCTAC,0.31
17,GATGATTGTTCTCCCAGCTGATGAATTCAGACTATCGAGTAAACAAATTTTCCTAATCTTTCTGTTCAAGCGCCATCTAC,0.468
18,GATGATTGTTCTCCCAGCTGATGAATTAAGCTCGTCGAGTAAACAAATTTTCCTAATCTTTCTGTTCAAGCGCCATCTAC,0.472
19,GATGATTGTTCTCCCAGCTGATGAATTGCGCTACTCGAGTAAACAAATTTTCCTAATCTTTCTGTTCAAGCGCCATCTAC,2.63
20,GATGATTGTTCTCCCAGCTGATGAATTAACGACGTCGAGTAAACAAATTTTCCTAATCTTTCTGTTCAAGCGCCATCTAC,0.29

row,Sequence,binding signal (RPM ratio (pull-down/input))
1,GATGATTGTTCTCCCAGCTGATGAATTTATCACTTCGAGTAAACAAATTTTCCTAATCTTTCTGTTCAAGCGCCATCTAC,2.16
2,GATGATTGTTCTCCCAGCTGATGAATTTGTGTAATCGAGTAAACAAATTTTCCTAATCTTTCTGTTCAAGCGCCATCTAC,4.48
3,GATGATTGTTCTCCCAGCTGATGAATTCTTGAGATCGAGTAAACAAATTTTCCTAATCTTTCTGTTCAAGCGCCATCTAC,0.218
4,GATGATTGTTCTCCCAGCTGATGAATTCCTCTCCTCGAGTAAACAAATTTTCCTAATCTTTCTGTTCAAGCGCCATCTAC,0.223
5,GATGATTGTTCTCCCAGCTGATGAATTATAACTATCGAGTAAACAAATTTTCCTAATCTTTCTGTTCAAGCGCCATCTAC,0.64
6,GATGATTGTTCTCCCAGCTGATGAATTTCAATGATCGAGTAAACAAATTTTCCTAATCTTTCTGTTCAAGCGCCATCTAC,0.513
7,GATGATTGTTCTCCCAGCTGATGAATTAGATTTATCGAGTAAACAAATTTTCCTAATCTTTCTGTTCAAGCGCCATCTAC,1.61
8,GATGATTGTTCTCCCAGCTGATGAATTGTCGATCTCGAGTAAACAAATTTTCCTAATCTTTCTGTTCAAGCGCCATCTAC,0.472
9,GATGATTGTTCTCCCAGCTGATGAATTCCGGACCTCGAGTAAACAAATTTTCCTAATCTTTCTGTTCAAGCGCCATCTAC,0.208
10,GATGATTGTTCTCCCAGCTGATGAATTGCCCCGTTCGAGTAAACAAATTTTCCTAATCTTTCTGTTCAAGCGCCATCTAC,0.422
11,GATGATTGTTCTCCCAGCTGATGAATTTGTAATATCGAGTAAACAAATTTTCCTAATCTTTCTGTTCAAGCGCCATCTAC,1.95
12,GATGATTGTTCTCCCAGCTGATGAATTCTTTTCCTCGAGTAAACAAATTTTCCTAATCTTTCTGTTCAAGCGCCATCTAC,0.31
13,GATGATTGTTCTCCCAGCTGATGAATTCCCGGTATCGAGTAAACAAATTTTCCTAATCTTTCTGTTCAAGCGCCATCTAC,0.38
14,GATGATTGTTCTCCCAGCTGATGAATTGCACTAGTCGAGTAAACAAATTTTCCTAATCTTTCTGTTCAAGCGCCATCTAC,0.656
15,GATGATTGTTCTCCCAGCTGATGAATTTTGAATGTCGAGTAAACAAATTTTCCTAATCTTTCTGTTCAAGCGCCATCTAC,1.23
16,GATGATTGTTCTCCCAGCTGATGAATTGGTGGGGTCGAGTAAACAAATTTTCCTAATCTTTCTGTTCAAGCGCCATCTAC,0.857
17,GATGATTGTTCTCCCAGCTGATGAATTGATGTCCTCGAGTAAACAAATTTTCCTAATCTTTCTGTTCAAGCGCCATCTAC,1.04
18,GATGATTGTTCTCCCAGCTGATGAATTGAATTTATCGAGTAAACAAATTTTCCTAATCTTTCTGTTCAAGCGCCATCTAC,1.43
19,GATGATTGTTCTCCCAGCTGATGAATTGATCGCTTCGAGTAAACAAATTTTCCTAATCTTTCTGTTCAAGCGCCATCTAC,0.427
20,GATGATTGTTCTCCCAGCTGATGAATTTCCATAGTCGAGTAAACAAATTTTCCTAATCTTTCTGTTCAAGCGCCATCTAC,0.227
